Laboratory results reported in PubChem BioAssay AID903 (National Center for Advancing Translational Sciences (NCATS), 2007).
The campaign covered roughly 55,000 compounds. About 340 (0.62%) were called active. Inconclusive means that the source gave no clear call. Such entries were picked first, then a sample of the others. Calls come from the whole dose curve; as a rule, active = well fitted cell-killing curve with a large enough effect; inconclusive = small, poorly fitted or top-dose-only effect; inactive = no such curve, though single readings can be large or run the other way. Potencies beside an inconclusive call are fits to weak or partial responses and may not hold up.

test: qHTS Screen for Compounds that Selectively Target Cancer Cells with p53 Mutations: Cytotoxicity of p53 Null Cells at the Permissive Temperature; details: H1299-neo p53 null cells, ATP luminescence, 24 h, 32C; series mostly up to 46.1 µM; activity change, negative = cytotoxicity: at the top concentration; note: nearly all actives have a fitted effect of over 55% in size;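 for activity change, negative = cytotoxicity: 0% = DMSO only and -100% = full killing by 100 µM tamoxifen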
Excerpt: NIH Chemical Genomics Center [NCGC] NIH Molecular Libraries Screening Centers Network [MLSCN] MLSCN Grant: 1 X01 MH079844-01 Assay Submitter (PI): Dr. SUN, YI, University of Michigan NCGC Assay Overview: Synthetic Lethal Screen for Compounds to Kill Cancer Cells with p53 Mutation. Tumor suppressor gene p53 serves as a major cellular barrier against tumorigenesis. […] The goal of this screening is to identify small molecule probes that selectively kill cancer cells with mutations in p53. This screening was carried out using two lines of H1299 lung cancer cells. The H1299-p53 A138V line express a temperature sensitive p53 mutant (p53ts) in which the mutant p53 protein (A138V) is in the mutant confirmation when grown at 39C (the nonpermissive temperature) and in the wild type conformation when grown at 32C (the permissive temperature). A H1299-neo line (p53 null) grown at both 39C and 32C were used as counter-screens to filter out false positive associated with temperature shifting. The small molecular compounds that selectively target mutant p53-containing cancer cells were selected as candidate probes for further study. A cytotoxicity assay based on the measurement of ATP contents in cells was used in this screen. Concentration-responses of all the compounds in the library collection were determined in qHTS using the cell lines and temperature conditions as above.
NCGC Assay Protocol Summary: Both the H1299-p53A138V and H1299-neo cell lines were provided by Dr.Yi Sun, a PI at the University Michigan. The cells were maintained and cultured at 37C. The resuspended frozen cells were used to plate the cells in the 1536-well assay plates at a density of 600 cells per well in 5 ul medium. The assay plates with the cells were incubated at 37C for 16 to 30 hours before the experiments. The library compounds in DMSO solution were added to the cells in assay plates and incubated 24 hours at 39C (for mutant p53 conformation) or 32C (for normal p53 conformation as control). An ATP_lite assay kit (PerkinElmer) was used to determine the cell viability. Tomaxifen (100uM) was used as the positive control for cell killing. Data were normalized to the controls for basal activity (DMSO only) and 100% killing (100uM tamoxifen). AC50 values were determined from concentration-response data modeled with the standard Hill equation. P53 assay protocol: 1. Reagent; 5 uL H1299-p53A138V or H1299-neo cell cells/well 2. Time; overnight; 37C incubation 3. Compounds; 23 nL; 5.9 nM to 46 uM 4. Controls; 23 nL; Tamoxifen 100 uM 5. Time; 24 hr; 32C incubation 6. Reagent; 3 uL; ATP_Lite reagent 7. Time; 20 min; Room Temperature 8. Detection; Luminescence; Viewlux plate reader Keywords: p53, synthetic lethal, cancer, cell viability, cytotoxicity, H1299 cell line, luminescence, MLSMR, MLSCN, NIH Roadmap, qHTS, NCGC
Potency is the fitted concentration of half-maximal effect; tags give direction and shape of the fitted curve.

SMILES	activity change, negative = cytotoxicity	Potency
COc1ccc2c(CNC3CCCCCC3)c(C(=O)O)n(Cc3ccccc3F)c2c1	inactive: -5.35%	
O=C(COc1ccccc1)Nc1nccs1		inconclusive: 11.2 µM [cytotoxic, partial curve]
Cn1c(=O)c2c(nc(NCCc3ccccc3)n2Cc2ccc(Cl)cc2)n(C)c1=O		inconclusive: 31.6 µM [cytotoxic, single point]
CCCCOC(=O)c1ccc(NC(=O)c2cc(-c3cccs3)on2)cc1		inconclusive: 20 µM [cytotoxic, single point]
Cc1ccc(C(=O)NC2(C(F)(F)F)N=C(c3ccccc3)N(Cc3ccccc3)C2=O)cc1 (centres undefined)	inactive: 17.4%	
O=C(NCCN1CCCCC1)c1ccc(Cn2c(SCc3ccccc3)nc3cccnc32)cc1		active: 15.8 µM
O=C(c1ccc(Cl)cc1)N1CCCCC(Sc2nnc(-c3ccc4c(c3)OCO4)o2)C1=O (centres undefined)		inconclusive: 5.62 µM [cytotoxic, full curve]
CCOc1ccc(-c2cc(CCCC(=O)NCCc3cc(OC)c(OC)c(OC)c3)no2)cc1		inconclusive: 35.5 µM [cytotoxic, single point]
CCOC(=O)C1CCCN(C(=O)Cn2c(=O)cc(C)c3c(C)nn(C)c32)C1 (centres undefined)	inactive: -3.77%	
COc1cc(/C=N/O)ccc1OCc1ccc(C(=O)O)cc1		active: 12.6 µM
CCOc1ccc(NC(=O)Cn2cc(S(=O)(=O)c3ccc(C)cc3)c(=O)c3cc(F)ccc32)cc1		inconclusive: 35.5 µM [cytotoxic, single point]
COc1cccc(C(=O)c2cn(CC(=O)Nc3cc(Cl)c(OC)cc3OC)c3nc(C)ccc3c2=O)c1	inactive: 0.904%	
CC(C)(C)c1ccc(C(=O)Nc2ccc(C(=O)OCc3cc(=O)n4ccsc4n3)cc2)cc1		inconclusive: 5.01 µM [cytotoxic, partial curve]
Cc1ccc(C)c(S(=O)(=O)c2cn(C)c3cc(F)c(F)cc3c2=O)c1		inconclusive: 3.16 µM [cytotoxic, single point]
COc1ccc(CCn2c(=O)c3ccccc3n(CC(=O)Nc3cccc(C)c3)c2=O)cc1OC	inactive: 3.28%	
Cc1c(NS(C)(=O)=O)cccc1-c1nc2ccccc2s1		inconclusive: 12.6 µM [cytotoxic, single point]
CCN1CCN(c2cc(C)c3cc(NC(=O)/C=C/c4cccc(Cl)c4)ccc3n2)CC1		inconclusive: 31.6 µM [cytotoxic, single point]
O=C(CCCc1ccccc1)c1ccc2c(c1)OCCO2		active: 10 µM
Cc1cccc(C2C=C(c3ccc(F)cc3)Nc3nc4ccccc4n32)c1 (centres undefined)		inconclusive: 12.6 µM [cytotoxic, single point]
CC(C)c1ccc(NC(=O)c2ccc(Br)o2)cc1		inconclusive: 15.8 µM [cytotoxic, partial curve]
CCOc1ccccc1CN(CCc1ccc2c(c1)OCO2)Cc1cccc(OC)c1OC		inconclusive: 4.47 µM [cytotoxic, partial curve]
COc1cccc(C2CC(=O)N3CN(C4CCCCC4)CSC3=C2C#N)c1 (centres undefined)	inactive: 23.4%	

SMILES	activity change, negative = cytotoxicity	Potency
CCN(CC)c1cc(C)c2cc(NC(=O)c3cccc(OC)c3OC)ccc2n1	inactive: -20.4%	
Cc1cn2c(=O)cc(COc3cccc(NC(=O)c4ccc(C(C)(C)C)cc4)c3)nc2s1		inconclusive: 12.6 µM [cytotoxic, partial curve]
C=CCc1ccccc1OCCSc1nc(-c2cccs2)nc2cc(=O)[nH]n12	inactive: -3.54%	
Cc1ccc2c(c1)C(=O)OC(C(=O)Nc1ccc(C(=O)O)cc1)C2 (centres undefined)		inconclusive: 12.6 µM [cytotoxic, single point]
CC1CCN(C(=O)CCS(=O)(=O)c2cc3c(cc2Cl)NC(=O)CO3)CC1	inactive: 1.52%	
CS(=O)(=O)c1ncc(Cl)c(C(=O)N2CCN(c3cccc(Cl)c3)CC2)n1		active: 14.1 µM
Cc1ccc(-c2nnn3c2nc(NCCc2ccccc2)c2ccccc23)cc1		inconclusive: 5.62 µM [cytotoxic, single point]
CCOC(=O)COc1ccc(/C=C(\C#N)c2nc3ccc(C)cc3[nH]2)cc1OC		inconclusive: 15.8 µM [cytotoxic, single point]
CC(=O)c1ccc(S(=O)(=O)Nc2ccc(-c3ccc(N4CCCCC4)nn3)cc2)cc1		inconclusive: 10 µM [cytotoxic, partial curve]
Cc1ccccc1NC(=O)c1cc2sccc2n1Cc1ccc(F)cc1	inactive: -2.26%	
Clc1ccc(Nc2nc(-c3ccccc3)c3ccccc3n2)c(Cl)c1	inactive: 3.77%	
COc1ccccc1NC(=O)C1=C(C)Nc2nc(SCc3ccccc3F)nn2C1c1ccncc1 (centres undefined)	inactive: 1.64%	
CCOc1ccccc1NC(=O)Nc1ccc2nc(N3CCN(C)CC3)cc(C)c2c1		inconclusive: 35.5 µM [cytotoxic, single point]
COc1cc(OC)cc(C(=O)Nc2ccc3nc4c(c(Nc5ccc(OC)c(OC)c5)c3c2)CCCC4)c1		inconclusive: 31.6 µM [cytotoxic, single point]
OC(COCC(F)(F)C(F)(F)C(F)(F)C(F)F)Cn1c2ccc(Cl)cc2c2cc(Cl)ccc21 (centres undefined)		inconclusive: 15.8 µM [cytotoxic, partial curve, poor fit]
CCOc1ccc(NC(=O)CSc2oc(-c3cccs3)nc2S(=O)(=O)c2ccc(C)cc2)cc1		inconclusive: 20 µM [cytotoxic, partial curve]
O=C(Nc1nc2ccc(F)cc2s1)c1nc(S(=O)(=O)Cc2ccccc2F)ncc1Cl		inconclusive: 20 µM [cytotoxic, single point]
CSc1ncc(C(=O)NCc2ccc(C)cc2)c(C)n1	inactive: 7.46%	
Cc1c(C(=O)Nc2ccc(F)c(C(F)(F)F)c2)sc2nc(-c3ccccc3)cn12		inconclusive: 35.5 µM [cytotoxic, single point]
COc1ccc(NC2=C(c3ccccc3)C(=O)c3ccccc32)cc1Cl		inconclusive: 20 µM [cytotoxic, single point]
Cc1ccc(NC(=O)c2cc3ccccn3n2)cc1F		active: 12.6 µM
COc1ccc(NC(=O)CCCn2c(=O)c3cccn3c3cccnc32)cc1Cl	inactive: -8.92%	
